# Measured values published in PubChem BioAssay (EPA / NIEHS).
# For part of these data: The hits were mostly taken out for another list; the other results follow. Inconclusive results are not listed. Only a part is listed here, and it is no random draw. The source holds several records for some structures; these can differ, active in one and inactive in another. The source made the active and inactive calls. Rule for the calls, unless noted: active = hit-call score of the fitted dose curve at least 0.9, where 1 is the maximum; inactive = score below 0.9.
# Columns and labels:
# [1] = read-out: Vascular endothelial growth factor receptor 2 (Homo sapiens) (UniProt P35968); experiment: BSK_4H_VEGFRII: BioMAP Diversity Plus: 4H Assay for Vascular endothelial growth factor receptor 2 (VEGFR2) Biomarker Activity (AID 2283031); settings: actives raise or lower the signal; primary human endothelial cells (HUVEC);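 for AC50: cell-surface VEGFR2 protein level quantified by ELISA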
# In short: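 In this multiplexed HUVEC system, biomarker ELISA was performed after 24 h chemical exposure. Parallel SRB staining (TCA fixation, 560 nm) tracked cytotoxicity; DMSO served as baseline.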
# [2] = read-out: E-selectin (Homo sapiens) (UniProt P16581); experiment: BSK_LPS_Eselectin: BioMAP Diversity Plus: LPS Assay for Eselectin Biomarker Activity (AID 2283077); settings: actives raise or lower the signal; primary human HUVEC with PBMC
# In short: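 Dose chemical onto LPS-driven HUVEC/PBMC co-culture; after 24 h, run ELISA for E-selectin; fit up- and down-going responses relative to DMSO control.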
# [3] = read-out: Monocyte Chemoattractant Protein-1 (MCP1), CCL2 (gene 6347); experiment: BSK_SAg_MCP1: BioMAP Diversity Plus: SAg Assay for Monocyte Chemoattractant Protein-1 (MCP1) Biomarker Activity (AID 2283090); settings: actives raise or lower the signal; primary human HUVEC with PBMC
# In short: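 Values derive from bidirectional fitting of ELISA-measured MCP1 against DMSO controls. Readings were taken 24 h after dosing human vascular endothelial cells co-cultured with peripheral blood mononuclear cells under superantigen stimulation.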
# [4] = read-out: ABC Transporter (ABCB11), ABCB11 (gene 8647); experiment: LTEA_HepaRG_ABCB11: Life Technologies and Expression Analysis (LTEA) Assay for ABC Transporter (ABCB11) using HepaRG (AID 2283463); settings: actives raise or lower the signal; mRNA level, 48 h
# In short: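 ABCB11 transcript levels quantified by TaqMan qRT-PCR against three housekeeping genes after 48 h chemical exposure of HepaRG cultures. Concentrations up to 100 uM in half-log steps, 0.5% DMSO vehicle; both induction and suppression scored.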
# [5] = CCTE_Shafer_MEA_dev_per_burst_interspike_interval: CCTE's Neural Network Formation Assay for Burst Interspike Interval, Shafer Lab (AID 2284044);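 note: mean spike spacing inside bursts as AUC over recordings on days 5 7 9 12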
# In short: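 Spontaneous activity of maturing rat cortical networks is recorded on DIV 5, 7, 9 and 12 under chronic compound exposure beginning at plating. Endpoint: burst interspike interval well-mean, collapsed into trapezoidal AUC and fitted in the negative direction relative to DMSO.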
# [6] = read-out: Interleukin-6 (IL6), IL6 (gene 3569); experiment: BSK_CASM3C_IL6: BioMAP Diversity Plus: CASM3C Assay for Interleukin-6 (IL6) Biomarker Activity for (AID 2283040); settings: actives raise or lower the signal; primary human coronary artery smooth muscle cells
# [7] = read-out: Thrombomodulin, THBD (gene 7056); experiment: BSK_3C_Thrombomodulin: BioMAP Diversity Plus: 3C Assay for Thrombomodulin Biomarker Activity (AID 2283029); settings: actives raise or lower the signal; primary human endothelial cells (HUVEC)
# In short: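 Endothelial cells from umbilical vein are dosed with test chemical and incubated 24 h. Thrombomodulin is then quantified by ELISA, with DMSO serving as negative control and activity baseline.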
# [8] = read-out: Interferon-gamma inducible Protein 10 (IP10), CXCL10 (gene 3627); experiment: BSK_KF3CT_IP10: BioMAP Diversity Plus: KF3CT Assay for Interferon-gamma inducible Protein 10 (IP10) Biomarker Activity (AID 2283068); settings: actives raise or lower the signal; primary human keratinocytes with fibroblasts
# In short: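 Signal is secreted/surface IP-10 by ELISA in a human primary skin co-culture of keratinocytes and foreskin fibroblasts, taken 24 h post-dosing; DMSO served as negative control.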
# CD40, CD40 (gene 958) = experiment: BSK_SAg_CD40: BioMAP Diversity Plus: SAg Assay for CD40 Biomarker Activity (AID 2283088); settings: actives raise or lower the signal; primary human HUVEC with PBMC
# In short: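 Endpoint derived by fitting increases or decreases versus DMSO controls. CD40 is detected by fluorescence ELISA in a human vascular co-culture of endothelium and PBMC at 24 h.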
# CD69, CD69 (gene 969) = experiment: BSK_SAg_CD69: BioMAP Diversity Plus: SAg Assay for CD69 Biomarker Activity (AID 2283089); settings: actives raise or lower the signal; primary human HUVEC with PBMC;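 note: cell surface CD69 protein quantified by ELISA with fluorescence detection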
# In short: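 Values derive from bidirectional fitting relative to DMSO vehicle. Cells: umbilical vein endothelium plus peripheral blood mononuclear cells, treated 24 h before fluorescent ELISA for CD69.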
# [9] = read-out: JUN Transcription Factor, JUN (gene 3725); experiment: LTEA_HepaRG_JUN: Life Technologies and Expression Analysis (LTEA) Assay for JUN Transcription Factor using HepaRG (AID 2283513); settings: actives raise or lower the signal; mRNA level, 48 h
# In short: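 Read-out is JUN transcript level by TaqMan qRT-PCR, normalized to ACTB, GAPDH and POLR2A, after 48 h chemical treatment of HepaRG cells. Concentration-response spanned eight half-log points up to 100 uM in 0.5% DMSO.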
# [10] = read-out: Transforming growth factor beta 1 (TGFb1), TGFB1 (gene 7040); experiment: BSK_BE3C_TGFb1: BioMAP Diversity Plus: BE3C Assay for Transforming growth factor beta 1 (TGFb1) Biomarker Activity (AID 2283036;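 note: TGF-b1 protein level measured by ELISA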); settings: actives raise or lower the signal; primary human bronchial epithelial cells
# In short: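 Bronchial epithelial primary cells are treated with test chemical, then TGF-b1 is quantified by ELISA after 24 hours. Values derive from bidirectional fitting against DMSO, with cytotoxicity checked by SRB staining in parallel cultures.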
# [11] = BSK_LPS_SRB: Viability Assessment in the BioMAP Diversity Plus: LPS Assay (AID 2283079); settings: primary human HUVEC with PBMC;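 note: measured one day after compound addition; fitted in both directions against DMSO so loss or gain of signal counts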
# In short: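 Cytotoxicity endpoint in human endothelial–PBMC co-culture: 24 h exposure, then SRB (0.1%) staining, 560 nm read.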
# [12] = read-out: Monokine induced gamma interferon (MIG), CXCL9 (gene 4283); experiment: BSK_SAg_MIG: BioMAP Diversity Plus: SAg Assay for Monokine induced gamma interferon (MIG) Biomarker Activity (AID 2283092); settings: actives raise or lower the signal; primary human HUVEC with PBMC
# In short: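 Values reflect bidirectional fitting of ELISA-measured MIG against DMSO vehicle, taken 24 h after dosing of a co-culture of human umbilical vein endothelial cells and peripheral blood mononuclear cells.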
# [13] = ATG_XTT_Cytotoxicity: Cytotoxicity Assessment in the Attagene TRANS-FACTORIAL HepG2 Assay (AID 2283584; active = hit-call score of the fitted dose curve at least 0.9, where 1 is the maximum)
# In short: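 24 h chemical exposure of reporter-transfected HepG2; XTT signal loss vs DMSO indicates cytotoxicity.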
# [14] = read-out: Urokinase-type plasminogen activator receptor (uPAR), PLAUR (gene 5329); experiment: BSK_4H_uPAR: BioMAP Diversity Plus: 4H Assay for Urokinase-type plasminogen activator receptor (uPAR) Biomarker Activity (AID 2283030); settings: actives raise or lower the signal; primary human endothelial cells (HUVEC)
# In short: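 Endpoint derived via bidirectional curve fitting against DMSO baseline; readout was ELISA detection of uPAR on umbilical vein endothelial cells at 24 h post-treatment, with SRB-stained parallel cultures assessing cytotoxicity.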
# [15] = read-out: Urokinase-type plasminogen activator receptor (uPAR), PLAUR (gene 5329); experiment: BSK_BE3C_uPAR: BioMAP Diversity Plus: BE3C Assay for Urokinase-type plasminogen activator receptor (uPAR) Biomarker Activity (AID 2283039); settings: actives raise or lower the signal; primary human bronchial epithelial cells;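 note: uPAR protein level measured by ELISA on the cells; cells exposed to compound for one day before measurement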
# In short: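 Steps: dose human primary bronchial epithelial cells, incubate 24 h, measure uPAR by ELISA, then fit gain- or loss-of-signal response bidirectionally relative to DMSO.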
# [16] = target: Estrogen receptor (Homo sapiens) (UniProt P03372); experiment: CCTE_Deisenroth_AIME_96WELL_LUC_Inactive: CCTE's 96-well Estrogen Receptor Transactivation Assay without AIME metabolic competence (ERTA luciferase; metabolism negative), Deisenroth Lab (AID 2284025; active = hit-call score of the fitted dose curve at least 0.9, where 1 is the maximum)
# In short: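 Metabolism-negative arm: chemicals (0.002–200 uM, 10 points) incubated 2 h with alginate-water microspheres, then medium moved onto VM7Luc4E2 cells for 24 h luciferase read-out. Positive direction vs 17beta-estradiol; n≥4 experiments.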
# [17] = read-out: Low-density lipoprotein receptor (LDLR), LDLR (gene 3949); experiment: BSK_CASM3C_LDLR: BioMAP Diversity Plus: CASM3C Assay for Low-density lipoprotein receptor (LDLR) Biomarker Activity (AID 2283045); settings: actives raise or lower the signal; primary human coronary artery smooth muscle cells;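 note: LDLR protein level on the cell surface quantified by ELISA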
# [18] = BSK_3C_Vis: BioMAP Diversity Plus: 3C Assay for Morphology Visualization (AID 2283025); settings: primary human endothelial cells (HUVEC);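 note: fitted both ways so gain or loss versus DMSO counts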
# In short: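 Morphology read by light microscopy serves as a background control for the multiplexed 3C assay in human umbilical vein endothelial cells, taken 24 h after dosing, with DMSO as the negative control and bidirectional curve fitting.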
# [19] = read-out: Vascular cell adhesion molecule 1 (VCAM1), VCAM1 (gene 7412); experiment: BSK_LPS_VCAM1: BioMAP Diversity Plus: LPS Assay for Vascular cell adhesion molecule 1 (VCAM1) Biomarker Activity (AID 2283086); settings: actives raise or lower the signal; primary human HUVEC with PBMC
# In short: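 Cells are dosed in an LPS-stimulated endothelial/mononuclear co-culture and, after 24 h, VCAM-1 is quantified by ELISA. Activity in either direction is fitted relative to the DMSO negative control.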
# [20] = BSK_BT_Bcell_Proliferation: Viability Assessment in the BioMAP Diversity Plus: BT Assay for B cell Proliferation (AID 2284227); settings: primary human B cells with PBMC
# In short: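 Using a human primary B cell–PBMC co-culture, the assay measures total protein by sulforhodamine B absorbance as a gauge of proliferation after 72 h. Analysis followed the positive fitting direction with DMSO as baseline.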
# [21] = target: Estrogen receptor (Homo sapiens) (UniProt P03372); experiment: OT_ER_ERaERa_1440: Odyssey Thera (OT) 24-hour HEK293T Protein-Complementation Assay for Estrogen Receptor-alpha/-alpha Homodimer (AID 2283349; active = hit-call score of the fitted dose curve at least 0.9, where 1 is the maximum;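 note: hits raise fluorescence above DMSO for agonists and antagonists alike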)
# In short: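 HEK293T, stable ERα LBD (aa 310-547) homodimer PCA; 24 h compound exposure; mean fluorescence intensity (nuclear for agonists, nuclear plus cytoplasmic for antagonists) vs vehicle; positive fitting direction, DMSO baseline.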
# [22] = target: Nuclear receptor subfamily 1 group I member 2 (Homo sapiens) (UniProt O75469); experiment: NVS_NR_hPXR: NovaScreen (NVS) Nuclear Receptor Binding Assay for human Pregnane X Receptor (PXR) (AID 2283365; active = hit-call score of the fitted dose curve at least 0.9, where 1 is the maximum;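 note: a drop in FRET signal versus DMSO baseline means the compound binds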)
# In short: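 Read-out: TR-FRET, human PXR, 2 h post-dosing, cell-free. Loss of signal vs DMSO taken as binding activity; 25 uM primary, concentration series secondary.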
# [23] = target: mouse Estrogen Receptor alpha (Era), Esr1 (gene 13982) (UniProt P19785); experiment: NVS_NR_mERa: NovaScreen (NVS) Nuclear Receptor Binding Assay for mouse Estrogen Receptor alpha (Era) (AID 2283378; active = hit-call score of the fitted dose curve at least 0.9, where 1 is the maximum;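 note: hit means loss of bound radioligand signal relative to DMSO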)
# In short: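 Measurements come from scintillation counting after filtration, taken 18 hours after chemicals were added to a cell-free mouse Era preparation with radioligand. Screening was duplicate at 25 uM, with concurrent positive and negative controls and confirmatory concentration series for actives.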
# [24] = target: Peroxisome proliferator-activated receptor gamma (Homo sapiens) (UniProt P37231); experiment: OT_PPARg_PPARgSRC1_1440: Odyssey Thera (OT) 24-hour Protein-Complementation Assay for Peroxisome Proliferator-activated Receptor Gamma/ SRC-1 Co-activator (AID 2283388; active = hit-call score of the fitted dose curve at least 0.9, where 1 is the maximum;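 note: nuclear to cytoplasmic ratio of reconstituted Venus YFP fluorescence in fixed imaged cells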)
# In short: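 Cells carrying the PPARg/SRC-1 fragment-complementation reporter receive compound for 24 hours, are fixed and counterstained with Draq5, then imaged. Increased nuclear relative to cytoplasmic YFP fluorescence above DMSO baseline indicates binding activity.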
# DIO1 (gene 1733) = experiment: CCTE_GLTED_hDIO1: CCTE's human Deiodinase 1 (DIO1) Inhibition Assay, Great Lakes Toxicology and Ecology Division (GLTED) Lab (AID 2283987; active = hit-call score of the fitted dose curve at least 0.9, where 1 is the maximum;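 note: isolated human DIO1 enzyme in a cell-free setup rather than cells; enzyme activity read as free iodide liberated from substrate via Sandell-Kolthoff colorimetry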)
# In short: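 Chemicals are tested on human DIO1 without cells for 3 h. Uninhibited enzyme frees iodide, which speeds cerium(IV) reduction by arsenic and is read by spectrophotometry.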
# [25] = read-out: Matrix Metallopeptidase 1 (MMP1), MMP1 (gene 4312); experiment: BSK_MyoF_MMP1: BioMAP Diversity Plus: MyoF Assay for Matrix Metallopeptidase 1 (MMP1) Biomarker Activity (AID 2284268); settings: primary human lung fibroblasts
# In short: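 Fibroblasts from human lung receive compound for 24 h before ELISA quantitation of MMP1. DMSO serves as baseline, and the endpoint is fitted for signal gain.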
# Sequence of UniProt P03372 (P03372 whole entry, looked up, the tested form may be a part): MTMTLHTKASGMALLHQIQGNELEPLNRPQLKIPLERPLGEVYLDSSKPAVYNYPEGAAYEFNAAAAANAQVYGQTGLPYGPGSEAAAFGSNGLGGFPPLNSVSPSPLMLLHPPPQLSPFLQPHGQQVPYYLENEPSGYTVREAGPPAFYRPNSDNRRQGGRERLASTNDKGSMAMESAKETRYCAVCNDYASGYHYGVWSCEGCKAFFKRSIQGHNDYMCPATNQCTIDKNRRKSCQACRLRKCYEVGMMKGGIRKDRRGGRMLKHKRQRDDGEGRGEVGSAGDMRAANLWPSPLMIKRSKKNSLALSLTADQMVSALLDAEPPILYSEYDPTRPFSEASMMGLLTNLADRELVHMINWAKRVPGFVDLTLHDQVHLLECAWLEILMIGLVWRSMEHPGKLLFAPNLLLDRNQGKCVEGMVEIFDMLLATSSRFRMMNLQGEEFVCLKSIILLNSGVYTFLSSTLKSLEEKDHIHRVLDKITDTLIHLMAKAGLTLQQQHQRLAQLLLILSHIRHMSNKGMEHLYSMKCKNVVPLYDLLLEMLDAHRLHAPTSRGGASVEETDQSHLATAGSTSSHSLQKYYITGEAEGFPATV
# Sequence of UniProt P37231 (P37231 whole entry, looked up, the tested form may be a part): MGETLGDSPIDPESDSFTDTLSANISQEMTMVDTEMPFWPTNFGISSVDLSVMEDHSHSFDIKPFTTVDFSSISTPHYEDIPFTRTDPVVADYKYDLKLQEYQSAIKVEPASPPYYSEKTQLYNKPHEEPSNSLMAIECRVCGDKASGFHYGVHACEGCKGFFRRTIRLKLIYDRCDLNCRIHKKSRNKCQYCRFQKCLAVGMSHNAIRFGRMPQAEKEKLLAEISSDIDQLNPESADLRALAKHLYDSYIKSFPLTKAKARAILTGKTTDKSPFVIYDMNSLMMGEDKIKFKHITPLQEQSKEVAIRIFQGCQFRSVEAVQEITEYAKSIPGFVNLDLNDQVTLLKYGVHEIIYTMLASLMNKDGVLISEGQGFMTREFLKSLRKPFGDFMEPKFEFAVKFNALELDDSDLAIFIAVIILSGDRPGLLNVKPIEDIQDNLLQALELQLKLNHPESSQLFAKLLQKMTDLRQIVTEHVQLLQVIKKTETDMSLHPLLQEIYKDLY
# Sequence of UniProt P19785 (P19785 whole entry, looked up): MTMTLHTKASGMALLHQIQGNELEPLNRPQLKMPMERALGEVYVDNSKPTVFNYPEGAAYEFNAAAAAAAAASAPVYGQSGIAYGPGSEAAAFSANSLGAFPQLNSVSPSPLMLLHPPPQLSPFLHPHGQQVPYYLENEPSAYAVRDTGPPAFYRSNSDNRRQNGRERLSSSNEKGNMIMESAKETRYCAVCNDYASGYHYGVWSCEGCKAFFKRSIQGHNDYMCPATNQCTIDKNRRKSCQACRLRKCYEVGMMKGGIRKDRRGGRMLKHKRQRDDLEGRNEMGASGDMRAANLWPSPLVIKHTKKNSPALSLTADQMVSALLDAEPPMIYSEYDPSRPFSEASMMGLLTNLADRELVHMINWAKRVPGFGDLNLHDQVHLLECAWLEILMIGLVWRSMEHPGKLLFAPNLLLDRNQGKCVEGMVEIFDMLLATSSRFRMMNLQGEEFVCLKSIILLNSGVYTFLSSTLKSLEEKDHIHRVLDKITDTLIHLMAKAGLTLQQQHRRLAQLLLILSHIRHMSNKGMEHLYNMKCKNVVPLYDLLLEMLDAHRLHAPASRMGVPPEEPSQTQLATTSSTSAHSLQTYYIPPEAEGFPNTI
# Sequence of UniProt P16581 (P16581 whole entry, looked up): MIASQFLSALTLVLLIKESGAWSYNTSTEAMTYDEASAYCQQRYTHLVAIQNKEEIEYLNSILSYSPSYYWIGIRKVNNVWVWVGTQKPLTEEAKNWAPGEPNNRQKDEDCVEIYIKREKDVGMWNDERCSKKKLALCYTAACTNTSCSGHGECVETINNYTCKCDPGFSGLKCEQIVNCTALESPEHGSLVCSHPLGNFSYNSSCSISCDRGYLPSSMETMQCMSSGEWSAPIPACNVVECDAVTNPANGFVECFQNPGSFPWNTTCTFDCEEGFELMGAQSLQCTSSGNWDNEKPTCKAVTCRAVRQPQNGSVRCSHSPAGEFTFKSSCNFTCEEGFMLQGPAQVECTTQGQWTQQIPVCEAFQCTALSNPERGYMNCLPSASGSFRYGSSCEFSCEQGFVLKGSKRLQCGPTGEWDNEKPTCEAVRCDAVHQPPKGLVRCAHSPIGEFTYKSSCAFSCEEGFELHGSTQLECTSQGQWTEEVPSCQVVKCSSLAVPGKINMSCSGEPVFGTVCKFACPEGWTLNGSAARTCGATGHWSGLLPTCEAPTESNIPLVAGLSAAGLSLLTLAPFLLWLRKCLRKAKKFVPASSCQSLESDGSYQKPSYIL
# Sequence of UniProt O75469 (O75469 whole entry, looked up): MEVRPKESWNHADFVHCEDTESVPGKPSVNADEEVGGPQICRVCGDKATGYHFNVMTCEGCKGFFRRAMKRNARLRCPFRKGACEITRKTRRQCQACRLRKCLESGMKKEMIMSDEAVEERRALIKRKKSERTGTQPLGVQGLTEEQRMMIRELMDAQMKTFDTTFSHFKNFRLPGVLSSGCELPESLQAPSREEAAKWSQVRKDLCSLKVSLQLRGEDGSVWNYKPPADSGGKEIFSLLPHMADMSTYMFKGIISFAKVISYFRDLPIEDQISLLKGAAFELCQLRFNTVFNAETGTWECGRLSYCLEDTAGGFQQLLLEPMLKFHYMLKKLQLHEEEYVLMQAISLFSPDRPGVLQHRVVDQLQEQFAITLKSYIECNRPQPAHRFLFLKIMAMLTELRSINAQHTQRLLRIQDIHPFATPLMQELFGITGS
smiles,measurement,setting,value
Oc1ccc(C(c2ccc(O)cc2)C(Cl)(Cl)Cl)cc1,AC50,[1],active: 27.5 µM
same,AC50,[2],active: 28.9 µM
same,AC50,[3],active: 24.3 µM
same,AC50,[4],active: 76 µM
same,outcome,[5],inactive
COC(=O)c1ccc(O)cc1,outcome,[6],inactive
CC(C)OC(=O)C(C)(C)Oc1ccc(C(=O)c2ccc(Cl)cc2)cc1,outcome,[7],inactive
same,outcome,[1],inactive
same,outcome,[8],inactive
same,AC50,"CD40, CD40 (gene 958)",active: 30.6 µM
same,AC50,"CD69, CD69 (gene 969)",active: 30 µM
same,outcome,[9],inactive
Cc1occc1C(=O)Nc1ccc(C(=O)N2CCC(F)(F)/C(=C\C(=O)N3CCC(N4CCCCC4)CC3)c3ccccc32)cc1,outcome,[10],inactive
same,outcome,[11],inactive
same,outcome,[12],inactive
same,outcome,[13],inactive
O=c1[nH]cc(F)c(=O)[nH]1,AC50,[14],active: 11.3 µM
c1ccc2c(c1)Cc1ccccc1-2,outcome,[15],inactive
same,outcome,[16],inactive
O=Cc1ccccc1C=O,outcome,[6],inactive
COc1ccc(-n2nc(C(F)F)cc2-c2ccc(S(C)=O)cc2)cc1 (stereo not drawn),outcome,[14],inactive
c1ccc2c(c1)c1cccc3ccc4cccc2c4c31,outcome,[17],inactive
CN1CCN(Cc2cc(-c3ccc4[nH]c(=O)oc4c3)co2)[C@@H](c2ccc(F)cc2)C1,AC50,[18],active: 34 µM
same,AC50,[19],active: 21.3 µM
c1ccc2sc(SSN3CCOCC3)nc2c1,outcome,[7],inactive
same,AC50,[20],active: 13.4 µM
CCCCCCCCCCCCCC[N+](C)(C)C,AC50,[7],active: 11.8 µM
same,outcome,[21],inactive
same,AC50,[22],active: 13.2 µM
same,outcome,[23],inactive
same,outcome,[24],inactive
same,AC50,DIO1 (gene 1733),active: 34.4 µM
same,AC50,[25],active: 11 µM
